Experimental data taken from the supplement of paper PMC11741623.
The list shows a part of the results. Interaction screen of human proteins with wild-type SARS-CoV-2 proteins by split-DHFR complementation in yeast, 1 µg/mL methotrexate. Value = fitness of the pair (three or more lineages) minus that of the viral protein without a human partner, on a scale set by negative (0) and fused positive (1) controls, mean of up to three cultures; higher = more likely to interact. Active = false discovery rate below 0.05 (one-sided t-test) in at least one culture. Nearly all pairs are not hits, and differences among them are mostly noise (correlation between cultures about 0.3); most hits were seen in one culture only. Human sequences are the Swiss-Prot entries looked up by gene name; the clone may be another isoform. NSP2 values were corrected by the authors for a growth advantage. Listed are human proteins with a hit and a random twelfth of the others.

Legend:
Assay in all cases: yeast fitness gain over the viral ORF with no human partner (scaled fitness); higher = more likely to interact
[1] = biological target: SARS-CoV-2 NSP10
Description: (§1)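 Split mouse DHFR complementation in pooled diploid yeast: human ORFeome clones carry one fragment and viral ORFs the other; barcoded lineages compete in 1 µg/mL methotrexate and fitness is read by barcode sequencing in up to three cultures.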

[2] = biological target: SARS-CoV-2 NSP13
Description: as §1

[3] = biological target: SARS-CoV-2 NSP16
Description: as §1

[4] = biological target: SARS-CoV-2 ORF9B
Description: as §1

[5] = biological target: SARS-CoV-2 NSP12
Description: as §1

[6] = biological target: SARS-CoV-2 NSP2
Description: as §1

[7] = biological target: SARS-CoV-2 ORF6
Description: as §1

[8] = biological target: SARS-CoV-2 S
Description: as §1

[9] = biological target: SARS-CoV-2 NSP4
Description: as §1

[10] = biological target: SARS-CoV-2 NSP5
Description: as §1

[11] = biological target: SARS-CoV-2 NSP7
Description: as §1

[12] = biological target: SARS-CoV-2 NSP8
Description: as §1

[13] = biological target: SARS-CoV-2 ORF10
Description: as §1

[14] = biological target: SARS-CoV-2 ORF7A
Description: as §1

[15] = biological target: SARS-CoV-2 ORF7B
Description: as §1

[16] = biological target: SARS-CoV-2 ORF8
Description: as §1

[17] = biological target: SARS-CoV-2 NSP15
Description: as §1

[18] = biological target: SARS-CoV-2 NSP6
Description: as §1

[19] = biological target: SARS-CoV-2 ORF3A
Description: as §1

[20] = biological target: SARS-CoV-2 ORF3B
Description: as §1

[21] = biological target: SARS-CoV-2 ORF9Bwu (the 73-codon ORF)
Description: as §1

Measured: yeast fitness gain

B1: C15orf37, Q8NBB2 (protein)
chain: MPRPASESWSPIQSRIPAYKAVSHLRLLPTANSPSGSNQPTNPNRAQHPEGPQSREGATSPVLASLEPPTPTDLPSARARPRVPAESGPGWLHKARRPTRGILRDVLRHRGVPAQPRPAPGAHQLSSPSS
inactive: [1] 0.0349 | [2] -0.0867 | [3] -0.0466 | [4] -0.138

B2: SLC17A8, Q8NDX2 (protein)
chain: MPFKAFDTFKEKILKPGKEGVKNAVGDSLGILQRKIDGTTEEEDNIELNEEGRPVQTSRPSPPLCDCHCCGLPKRYIIAIMSGLGFCISFGIRCNLGVAIVEMVNNSTVYVDGKPEIQTAQFNWDPETVGLIHGSFFWGYIMTQIPGGFISNKFAANRVFGAAIFLTSTLNMFIPSAARVHYGCVMCVRILQGLVEGVTYPACHGMWSKWAPPLERSRLATTSFCGSYAGAVVAMPLAGVLVQYIGWSSVFYIYGMFGIIWYMFWLLQAYECPAAHPTISNEEKTYIETSIGEGANVVSLSKFSTPWKRFFTSLPVYAIIVANFCRSWTFYLLLISQPAYFEEVFGFAISKVGLLSAVPHMVMTIVVPIGGQLADYLRSRQILTTTAVRKIMNCGGFGMEATLLLVVGFSHTKGVAISFLVLAVGFSGFAISGFNVNHLDIAPRYASILMGISNGVGTLSGMVCPLIVGAMTRHKTREEWQNVFLIAALVHYSGVIFYGVFASGEKQEWADPENLSEEKCGIIDQDELAEEIELNHESFASPKKKMSYGATSQNCEVQKKEWKGQRGATLDEEELTSYQNEERNFSTIS
inactive: [1] 0.0261 | [5] 0.0828 | [2] -0.0198 | [6] -0.136 | [7] -0.0947 | [4] -0.408 | [8] 0.0296

B3: RARS, P54136 (protein)
chain: MDVLVSECSARLLQQEEEIKSLTAEIDRLKNCGCLGASPNLEQLQEENLKLKYRLNILRKSLQAERNKPTKNMINIISRLQEVFGHAIKAAYPDLENPPLLVTPSQQAKFGDYQCNSAMGISQMLKTKEQKVNPREIAENITKHLPDNECIEKVEIAGPGFINVHLRKDFVSEQLTSLLVNGVQLPALGENKKVIVDFSSPNIAKEMHVGHLRSTIIGESISRLFEFAGYDVLRLNHVGDWGTQFGMLIAHLQDKFPDYLTVSPPIGDLQVFYKESKKRFDTEEEFKKRAYQCVVLLQGKNPDITKAWKLICDVSRQELNKIYDALDVSLIERGESFYQDRMNDIVKEFEDRGFVQVDDGRKIVFVPGCSIPLTIVKSDGGYTYDTSDLAAIKQRLFEEKADMIIYVVDNGQSVHFQTIFAAAQMIGWYDPKVTRVFHAGFGVVLGEDKKKFKTRSGETVRLMDLLGEGLKRSMDKLKEKERDKVLTAEELNAAQTSVAYGCIKYADLSHNRLNDYIFSFDKMLDDRGNTAAYLLYAFTRIRSIARLANIDEEMLQKAARETKILLDHEKEWKLGRCILRFPEILQKILDDLFLHTLCDYIYELATAFTEFYDSCYCVEKDRQTGKILKVNMWRMLLCEAVAAVMAKGFDILGIKPVQRM
inactive: [1] 0.0952 | [5] -0.0214

B4: RBFA, Q8N0V3 (protein)
chain: MWAAAGGLWRSRAGLRALFRSRDAALFPGCERGLHCSAVSCKNWLKKFASKTKKKVWYESPSLGSHSTYKPSKLEFLMRSTSKKTRKEDHARLRALNGLLYKALTDLLCTPEVSQELYDLNVELSKVSLTPDFSACRAYWKTTLSAEQNAHMEAVLQRSAAHMRHLLMSQQTLRNVPPIVFVQDKGNAALAELDQLLAVADFGPRDERDNFVQNDFRDPDAPQPCGTTEPTTSSSLCGIDHEALNKQIMEYKRRKDKGLGGLVWQGQVAELTTQMKKGRKRAKPRLEQDSSLKSYLSGEEVEDDLDLVGAPEYECYAPDTEELEAERGGGRTEDGHSCGASRE
inactive: [1] 0.0166 | [5] 0.102 | [2] 0.0334 | [3] 0.0543 | [6] -0.0489 | [9] -0.208 | [10] -0.0481 | [11] 0.0456 | [12] 0.00536 | [13] -0.0934 | [7] 0.0298 | [14] -0.158 | [15] 0.0559 | [16] 0.0833 | [4] 0.0211 | [8] 0.0658

B5: LGALSL, Q3ZCW2 (protein)
chain: MAGSVADSDAVVKLDDGHLNNSLSSPVQADVYFPRLIVPFCGHIKGGMRPGKKVLVMGIVDLNPESFAISLTCGDSEDPPADVAIELKAVFTDRQLLRNSCISGERGEEQSAIPYFPFIPDQPFRVEILCEHPRFRVFVDGHQLFDFYHRIQTLSAIDTIKINGDLQITKLG
inactive: [1] -0.0243 | [5] -0.0485 | [2] -0.0782 | [17] -0.13 | [6] -0.278 | [10] 0.0523 | [12] 0.0743 | [7] -0.0609 | [14] 0.123 | [16] 0.0583 | [4] -0.122 | [8] -0.504

B6: SMR3B, P02814 (protein)
chain: MKSLTWILGLWALAACFTPGESQRGPRGPYPPGPLAPPQPFGPGFVPPPPPPPYGPGRIPPPPPAPYGPGIFPPPPPQP
inactive: [1] -0.0261 | [5] -0.133 | [2] -0.0268 | [3] -0.129 | [6] -0.18 | [10] -0.0912 | [18] -0.0397 | [11] -0.0839 | [12] 0.0579 | [13] 0.0259 | [19] -0.0569 | [20] -0.0446 | [7] -0.0471 | [14] -0.00139 | [15] 0.0225 | [16] 0.0355 | [4] -0.0875 | [21] -0.228 | [8] 0.0488
